Positions count from the first letter of the chain named. The list shows a part of the results.
T1: RBFOX1 RRM RbFoxmut (Fox-RRM*) (Homo sapiens, UniProt Q9NWB1 109-208, R118D;E147R;N151S;E152T)
T1 sequence: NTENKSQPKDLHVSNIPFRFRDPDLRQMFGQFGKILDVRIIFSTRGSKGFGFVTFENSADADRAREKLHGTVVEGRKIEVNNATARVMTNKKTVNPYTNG

B1: GCAACUA (DNA:RNA)
RNA: GGGAGACCGGAAUUCAGAUUGUCCGCAACUAUUAAAUCCCGUCGUAGCCACCA
DNA 1: CAATCTGAATTCCGGTCTCCC
DNA 2: TGGTGGCTACGACGGGATT
B2: UUGACCU (DNA:RNA)
RNA: B1 RNA with G25U, C26U, A27G, U30C, A31U
DNA 1: CAATCTGAATTCCGGTCTCCC
DNA 2: TGGTGGCTACGACGGGATT
B3: ACAACGG (DNA:RNA)
RNA: B1 RNA with G25A, U30G, A31G
DNA 1: CAATCTGAATTCCGGTCTCCC
DNA 2: TGGTGGCTACGACGGGATT
B4: AAUGGAG (DNA:RNA)
RNA: GGGAGACCGGAAUUCAGAUUGUCCAAUGGAGUUAAAUCCCGUCGUAGCCACCA
DNA 1: CAATCTGAATTCCGGTCTCCC
DNA 2: TGGTGGCTACGACGGGATT
B5: GUGGGAG (DNA:RNA)
RNA: B4 RNA with A25G, A26U, U27G
DNA 1: CAATCTGAATTCCGGTCTCCC
DNA 2: TGGTGGCTACGACGGGATT
B6: UGCUCCA (DNA:RNA)
RNA: B1 RNA with G25U, C26G, A27C, A28U, U30C
DNA 1: CAATCTGAATTCCGGTCTCCC
DNA 2: TGGTGGCTACGACGGGATT
B7: GCCUGGU (DNA:RNA)
RNA: B1 RNA with A27C, A28U, C29G, U30G, A31U
DNA 1: CAATCTGAATTCCGGTCTCCC
DNA 2: TGGTGGCTACGACGGGATT
B8: GCGUACA (DNA:RNA)
RNA: B1 RNA with A27G, A28U, C29A, U30C
DNA 1: CAATCTGAATTCCGGTCTCCC
DNA 2: TGGTGGCTACGACGGGATT
B9: AUACAAA (DNA:RNA)
RNA: B4 RNA with A26U, U27A, G28C, G29A, G31A
DNA 1: CAATCTGAATTCCGGTCTCCC
DNA 2: TGGTGGCTACGACGGGATT
B10: UUCUGGG (DNA:RNA)
RNA: B4 RNA with A25U, A26U, U27C, G28U, A30G
DNA 1: CAATCTGAATTCCGGTCTCCC
DNA 2: TGGTGGCTACGACGGGATT
B11: AAACUAC (DNA:RNA)
RNA: B4 RNA with U27A, G28C, G29U, G31C
DNA 1: CAATCTGAATTCCGGTCTCCC
DNA 2: TGGTGGCTACGACGGGATT
B12: CAAAGCA (DNA:RNA)
RNA: B1 RNA with G25C, C26A, C29G, U30C
DNA 1: CAATCTGAATTCCGGTCTCCC
DNA 2: TGGTGGCTACGACGGGATT
B13: CGGGAGA (DNA:RNA)
RNA: B4 RNA with A25C, A26G, U27G, G29A, A30G, G31A
DNA 1: CAATCTGAATTCCGGTCTCCC
DNA 2: TGGTGGCTACGACGGGATT
B14: AUGCGCA (DNA:RNA)
RNA: B4 RNA with A26U, U27G, G28C, A30C, G31A
DNA 1: CAATCTGAATTCCGGTCTCCC
DNA 2: TGGTGGCTACGACGGGATT
B15: CCCCAUG (DNA:RNA)
RNA: B1 RNA with G25C, A27C, A28C, C29A, A31G
DNA 1: CAATCTGAATTCCGGTCTCCC
DNA 2: TGGTGGCTACGACGGGATT
B16: ACCCUUU (DNA:RNA)
RNA: B1 RNA with G25A, A27C, A28C, C29U, A31U
DNA 1: CAATCTGAATTCCGGTCTCCC
DNA 2: TGGTGGCTACGACGGGATT
B17: AUCGCGG (DNA:RNA)
RNA: B4 RNA with A26U, U27C, G29C, A30G
DNA 1: CAATCTGAATTCCGGTCTCCC
DNA 2: TGGTGGCTACGACGGGATT
B18: CUUUUUA (DNA:RNA)
RNA: B1 RNA with G25C, C26U, A27U, A28U, C29U
DNA 1: CAATCTGAATTCCGGTCTCCC
DNA 2: TGGTGGCTACGACGGGATT
B19: CGCCGCA (DNA:RNA)
RNA: B4 RNA with A25C, A26G, U27C, G28C, A30C, G31A
DNA 1: CAATCTGAATTCCGGTCTCCC
DNA 2: TGGTGGCTACGACGGGATT
B20: GAGGCAU (DNA:RNA)
RNA: B4 RNA with A25G, U27G, G29C, G31U
DNA 1: CAATCTGAATTCCGGTCTCCC
DNA 2: TGGTGGCTACGACGGGATT

Biological target: T1, RBFOX1 RRM RbFoxmut (Fox-RRM*)
Experiment: EMSA; HiTS-Eq, 1 nM pool, 10 min; buffer printed only for the single-RNA assays: 10 mM Tris pH 7.5, 150 mM NaCl, 3.4 mM EDTA, 0.001% NP-40, 30 C
Conditions: tags: His6 N-terminal (pET28a); label: 5' 32P
How it was run: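 These values rest on relative association constants, computed from read-count changes of each RNA species versus the control reaction and normalised to the cognate motif. Reads came from free RNA recovered by 8% native PAGE after purified RbFox RRM (wild type or mutant) at increasing concentrations was equilibrated for 10 min in 50 µL with 1 nM of a 5′-radiolabelled pool with 7 randomized nucleotides and DNA-annealed flanks.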

In order of falling binding signal:
1. B7  0.211 KA relative to UGCAUGU
2. B19  0.173 KA relative to UGCAUGU
3. B14  0.172 KA relative to UGCAUGU
4. B13  0.117 KA relative to UGCAUGU
5. B4  0.114 KA relative to UGCAUGU
6. B5  0.114 KA relative to UGCAUGU
7. B18  0.114 KA relative to UGCAUGU
8. B15  0.112 KA relative to UGCAUGU
9. B12  0.108 KA relative to UGCAUGU
10. B20  0.106 KA relative to UGCAUGU
11. B16  0.102 KA relative to UGCAUGU
12. B11  0.0981 KA relative to UGCAUGU
13. B17  0.0979 KA relative to UGCAUGU
14. B6  0.0911 KA relative to UGCAUGU
15. B9  0.0876 KA relative to UGCAUGU
16. B1  0.0869 KA relative to UGCAUGU
17. B8  0.0806 KA relative to UGCAUGU
18. B3  0.0675 KA relative to UGCAUGU
19. B2  0.0666 KA relative to UGCAUGU
20. B10  0.0634 KA relative to UGCAUGU

Source: paper PMC9911399, “Two distinct binding modes provide the RNA-binding protein RbFox with extraordinary sequence specificity”
